The results in this text go back to publication PMC4336329 (PLoS ONE, 2015).

Hit rate of the full screen: of about 310,000 compounds, about 14,000 (4.5%) showed an effect of 50% or more. Effects have a minus sign here. The list shows a part of the results.
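Further: peak tail current of the secondary pulse compared with the same well before compound.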

The experiment deals with human ether-à-go-go-related gene (hERG) potassium channel (human, UniProt Q12809). The experiment can be described thus: primary screen, population patch clamp on CHO cells stably expressing hERG.
Sequence of human ether-à-go-go-related gene (hERG) potassium channel (Q12809 whole entry, looked up): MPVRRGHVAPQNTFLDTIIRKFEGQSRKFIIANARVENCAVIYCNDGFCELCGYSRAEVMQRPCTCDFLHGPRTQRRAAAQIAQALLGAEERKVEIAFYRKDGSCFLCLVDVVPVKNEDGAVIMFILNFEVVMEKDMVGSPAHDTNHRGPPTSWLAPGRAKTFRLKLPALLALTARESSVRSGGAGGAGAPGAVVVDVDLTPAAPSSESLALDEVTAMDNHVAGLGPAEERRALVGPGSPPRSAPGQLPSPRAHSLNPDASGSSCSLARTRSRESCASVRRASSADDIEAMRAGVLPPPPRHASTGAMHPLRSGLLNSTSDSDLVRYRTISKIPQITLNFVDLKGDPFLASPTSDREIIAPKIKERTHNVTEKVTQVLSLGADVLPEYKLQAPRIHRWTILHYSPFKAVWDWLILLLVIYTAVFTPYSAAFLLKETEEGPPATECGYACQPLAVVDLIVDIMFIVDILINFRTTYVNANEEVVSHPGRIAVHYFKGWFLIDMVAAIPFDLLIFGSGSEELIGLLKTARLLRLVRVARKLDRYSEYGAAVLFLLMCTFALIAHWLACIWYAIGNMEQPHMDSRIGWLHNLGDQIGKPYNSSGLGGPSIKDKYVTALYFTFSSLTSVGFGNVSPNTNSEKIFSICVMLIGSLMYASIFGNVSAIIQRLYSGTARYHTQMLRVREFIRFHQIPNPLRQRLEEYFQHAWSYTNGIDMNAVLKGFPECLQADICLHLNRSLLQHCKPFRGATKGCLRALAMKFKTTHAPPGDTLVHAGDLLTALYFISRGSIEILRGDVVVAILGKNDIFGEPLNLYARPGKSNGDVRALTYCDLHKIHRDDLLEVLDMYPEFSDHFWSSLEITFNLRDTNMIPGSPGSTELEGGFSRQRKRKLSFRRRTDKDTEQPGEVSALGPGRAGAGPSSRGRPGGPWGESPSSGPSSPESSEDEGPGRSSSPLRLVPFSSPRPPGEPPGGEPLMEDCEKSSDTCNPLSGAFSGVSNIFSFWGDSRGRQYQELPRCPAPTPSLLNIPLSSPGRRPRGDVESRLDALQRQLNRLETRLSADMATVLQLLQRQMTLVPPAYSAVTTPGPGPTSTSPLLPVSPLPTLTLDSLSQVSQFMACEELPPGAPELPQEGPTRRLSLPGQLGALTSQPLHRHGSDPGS
For `Cn1c(=O)n(C/C=C/c2ccccc2)c(=O)c2c1nc1n2CCCN1Cc1ccccc1`, the “hERG current change (%, negative = inhibition) at 10uM” value was -0.911%. `N=c1n(Cc2ccccc2)c2ccccc2n1Cc1ccccc1`: the “hERG current change (%, negative = inhibition) at 10uM” value is -62.1%. On to `CCn1c(SCc2ccc(C(=O)Nc3nccs3)cc2)nnc1-c1ccc(N)cc1`, for which the “hERG current change (%, negative = inhibition) at 10uM” value was -22.2%. `c1ccc(CNC2=NCCS2)cc1`: the “hERG current change (%, negative = inhibition) at 10uM” value came out at 18.1%.

Turning to `COc1cc(/C=N/NC(=O)Nc2ccccc2)ccc1OC(C)=O`, the “hERG current change (%, negative = inhibition) at 10uM” value is on record as 11.7%. For `O=C(Cn1cc2c(n1)CCCCC2)N1CCCCC1`, the “hERG current change (%, negative = inhibition) at 10uM” value was 2.46%. In the case of `CCCc1nc(NCc2ccco2)c(C#N)c2c1COC(C)(C)C2`, the “hERG current change (%, negative = inhibition) at 10uM” value is on record as 6.37%. The figure for `CCC(C)Nc1nc2ccccc2n2c(C)nnc12` (stereo not shown) is -18.9%; for `COc1cccc(C(=O)CC(=O)C(=O)Nc2cc(OC)c(OC)c(OC)c2)c1` it is 0.438%; for `O=C1CC(c2ccc(F)cc2)CC(O)=C1C=NCCN1CCNCC1` (stereo not shown) it is 6.09%.

On to `C/C(=N\NC(=O)C(N)=O)c1ccc(Br)cc1`, for which the “hERG current change (%, negative = inhibition) at 10uM” value amounted to 8.48%. On to `O=S(=O)(c1cc(C(F)(F)F)ccc1Cl)N1CCCCCC1`, for which the “hERG current change (%, negative = inhibition) at 10uM” value is -2.01%. Turning to `C/C(=N\NC(=O)c1ccc(NS(=O)(=O)c2cccs2)cc1)c1ccc2ccccc2c1`, the “hERG current change (%, negative = inhibition) at 10uM” value is given as -5.59%.

Turning to `CCCn1c(C(C)Nc2nc(-c3ccc(C)cc3)cs2)nc2cc(Cl)c(Cl)cc21` (stereo not shown), the “hERG current change (%, negative = inhibition) at 10uM” value worked out at 0.722%. The figure for `CCOC(=O)c1[nH]c(C)c(/C(O)=C2\C(=O)C(=O)N(CCN3CCOCC3)C2c2ccco2)c1C` (stereo not shown) is 6.4%; for `CNC(=S)NC1CC2CCCC(C1)N2CC(C)C` (stereo not shown) it is 1.02%. On to `CCOC(=O)Cn1cc(C=C2C(=O)N(C)C(=O)N(C)C2=O)c2ccccc21`, for which the “hERG current change (%, negative = inhibition) at 10uM” value stood at 4.93%.

Regarding `O=C(COC(=O)CNC(=O)c1cccs1)Nc1ccccc1C(F)(F)F`, the “hERG current change (%, negative = inhibition) at 10uM” value was 49%. Take `Cc1cccc(NC(=O)C2CCCN(S(=O)(=O)c3cccc4nsnc34)C2)n1` (stereo not shown): the “hERG current change (%, negative = inhibition) at 10uM” value is -16.9%. With `Cc1ccccc1N(C(=O)c1csnn1)C(C(=O)NC1CCCCC1)c1ccncc1` (stereo not shown) the figure was 10.7%; with `O=S(=O)(Nc1ncccn1)c1cc(Cl)ccc1Cl`, 1.26%; with `COc1ccc(OC)c(NC(=O)CN(C)CC(=O)Nc2ccccc2Br)c1`, 3.51%. Consider `CC(CCOC1=NS(=O)(=O)c2ccccc21)NC(=O)C(=O)Nc1ccccc1` (stereo not shown), for which the “hERG current change (%, negative = inhibition) at 10uM” value worked out at 4.69%. On to `O=C(COC(=O)C1COc2ccccc2O1)Nc1cccc(S(=O)(=O)N2CCCCC2)c1` (stereo not shown), for which the “hERG current change (%, negative = inhibition) at 10uM” value is 3.48%. With `N#Cc1ccccc1S(=O)(=O)N1CCN(CC(O)COc2ccccc2F)CC1.O=C(O)C(=O)O` (stereo not shown) the figure was -8.58%; with `CN(C)C(CNC(=O)CN1C(=O)NC2(CCc3ccccc32)C1=O)c1ccco1` (stereo not shown), 21.9%; with `Clc1ccccc1SCc1nc2ccccc2[nH]1`, 0.186%. As to `O=C(CN1C(=O)C2C3C=CC(C4CC34)C2C1=O)NCc1ccco1` (stereo not shown), the “hERG current change (%, negative = inhibition) at 10uM” value was -9.93%.

As for `O=S(=O)(NCCN1CCOCC1)c1ccc(-c2ccc(S(=O)(=O)NCCN3CCOCC3)cc2)cc1`, the “hERG current change (%, negative = inhibition) at 10uM” value is given as 23.4%. For `COCc1cc(=O)[nH]c(Nc2nc3ccc(C)cc3o2)n1`, the “hERG current change (%, negative = inhibition) at 10uM” value is on record as -10.3%.

Regarding `CC1CCCCC1NC(=O)Cn1c(CN2CCCCC2)nc2ccccc2c1=O` (stereo not shown), the “hERG current change (%, negative = inhibition) at 10uM” value is recorded as -24.6%. Regarding `COc1ccccc1N1CCN(C(=O)c2ccc3c(=O)n(Cc4ccco4)c(=S)[nH]c3c2)CC1`, the “hERG current change (%, negative = inhibition) at 10uM” value is -17.4%. `CCc1cccc(NC(=O)CN(C)S(=O)(=O)c2cccc3cccnc23)c1`: the “hERG current change (%, negative = inhibition) at 10uM” value was -9.11%. The figure for `O=C(NC1CC1)c1cccc(S(=O)(=O)N2CCOCC2)c1` is 3.69%.

For `CCOc1ncccc1C(=O)OCC(=O)Nc1ncc(C(F)(F)F)cc1Cl`, the “hERG current change (%, negative = inhibition) at 10uM” value is listed as -9.28%. Regarding `C/C(=N\Nc1ccc(S(=O)(=O)Nc2ccccc2)cc1[N+](=O)[O-])c1ccc(N2CCOCC2)cc1`, the “hERG current change (%, negative = inhibition) at 10uM” value is on record as -12.8%. As for `O=C(c1ccccc1-c1nc2ccccc2[nH]1)N1CCOCC1`, the “hERG current change (%, negative = inhibition) at 10uM” value is given as -5.47%. Turning to `C=CCn1c(-c2cnn(-c3ccccc3)c2N)n[nH]c1=S`, the “hERG current change (%, negative = inhibition) at 10uM” value was 13.5%.

For the compound `C/C(=N\OC(=O)NC(C)C)c1sc(-c2ccc(Cl)cc2)nc1C`, the “hERG current change (%, negative = inhibition) at 10uM” value is on record as -11.3%. With `CCCNC(=O)CN1C(=O)NC(CC)(c2ccc(F)cc2)C1=O` (stereo not shown) the figure was 5.38%. For `CN(C)/C=C(\C=[N+](C)C)c1[nH]ncc1[N+](=O)[O-].[O-][Cl+3]([O-])([O-])[O-]`, the “hERG current change (%, negative = inhibition) at 10uM” value worked out at 8.25%. For the compound `CC(=O)Nc1nonc1NC(=O)c1ccc(C(C)(C)C)cc1`, the “hERG current change (%, negative = inhibition) at 10uM” value is on record as -10.6%. With `CCN(CC(=O)Nc1ccccc1C(F)(F)F)CC(=O)NC1CC1` the figure was 4.64%; with `C=CCN(CC=C)C(=O)c1cccc(OC2CCN(S(=O)(=O)N(C)C)CC2)c1`, 11.8%; with `COc1cc2c(C#N)c(N3CCN(c4ccccc4OC)CC3)nc(N)c2c(N)n1`, 5.45%. The figure for `Cc1sc(NC(=O)CN2CCOCC2)c(C(=O)c2ccccc2)c1C` is -18.3%; for `O=C(O)C1CC(=O)N(c2ccc(F)c(F)c2)C1` (stereo not shown) it is 13%; for `O=[N+]([O-])c1ccccc1OCc1nc(-c2cccs2)no1` it is 19.1%. In the case of `Cc1ccc(NC(=O)c2ccncc2)cc1[N+](=O)[O-]`, the “hERG current change (%, negative = inhibition) at 10uM” value is recorded as -1.98%. With `CCc1ccc(NC(=O)c2ccc(NC(=O)C3CCCO3)cc2)cc1` (stereo not shown) the figure was 22.5%; with `CCOc1ccccc1NC(=O)[C@@H](NC(=O)c1ccccc1F)C(C)C`, -6.35%; with `COc1ccccc1Oc1ccc(S(=O)(=O)N2CCCC2)cc1`, -77.3%. For the compound `COc1cc(/C=N/NC(=O)COc2ccccc2[N+](=O)[O-])ccc1OC(=O)c1ccco1`, the “hERG current change (%, negative = inhibition) at 10uM” value was -1.29%. Regarding `Cc1ccc(N(CC(=O)NC(C)(C)C)C(=O)CS(=O)CC(=O)Nc2ccc3c(c2)OCO3)cc1` (stereo not shown), the “hERG current change (%, negative = inhibition) at 10uM” value is listed as -0.306%. The figure for `CSC(C(=O)c1cc2ccccc2o1)c1ccccc1` (stereo not shown) is 7.64%; for `COc1cccc(CNC(=O)c2ccc(C)c(S(=O)(=O)N3CCCCC3)c2)c1` it is -19.5%; for `Cc1ccc(CN2CCN(/N=C/c3ccc(Cl)c([N+](=O)[O-])c3)CC2)cc1` it is -4.43%.

`Cc1oc2c(CN3CCC(C)CC3)c(O)ccc2c(=O)c1-c1ccccc1`: the “hERG current change (%, negative = inhibition) at 10uM” value is -14.7%.

On to `Cl.Oc1ccc(Nc2ncnc3ccccc23)cc1`, for which the “hERG current change (%, negative = inhibition) at 10uM” value amounted to 23.9%. As to `S=C(Nc1ccc(Cl)c(Cl)c1)N1CCCC1`, the “hERG current change (%, negative = inhibition) at 10uM” value worked out at 6.78%.

With `COc1ccc(C(C)=O)cc1COc1cccc2cccnc12`, the “hERG current change (%, negative = inhibition) at 10uM” value is -9.8%. Consider `Cc1cc(=O)oc2c3c(cc(OCC(=O)NCc4cccnc4)c12)OC(C)(C)CC3`, for which the “hERG current change (%, negative = inhibition) at 10uM” value is reported as -23.2%.

As to `CN(C)CCNC(NC(=O)c1cccs1)C(Cl)(Cl)Cl` (stereo not shown), the “hERG current change (%, negative = inhibition) at 10uM” value is reported as -14%.

As for `CCc1noc(C)c1C(=O)NCCc1ccc(OC)c(OC)c1`, the “hERG current change (%, negative = inhibition) at 10uM” value is listed as 2.06%.

With `CCCCn1c(N)c(C(=O)NCCN2CCOCC2)c2nc3ccccc3nc21`, the “hERG current change (%, negative = inhibition) at 10uM” value is -64.1%. On to `O=C(CSc1nnc(-c2ccncc2)n1Cc1ccco1)Nc1nc(-c2ccccc2)cs1`, for which the “hERG current change (%, negative = inhibition) at 10uM” value was -57.4%. The figure for `Cc1[nH]c2ccccc2c1/C=N/NC(=O)c1ccccc1` is 12.6%; for `Cc1ccc2[nH]c(=O)c(CN(Cc3cccnc3)C(=S)NCCCN(C)C)cc2c1` it is 4.54%; for `O=C(CC1CCCCC1)NCc1ccco1` it is 7.66%. With `CCn1c(N2CCC(C)CC2)nc2c1c(=O)n(C)c(=O)n2C` the figure was 4.16%; with `O=C(Nc1cccc(S(=O)(=O)N2CCCCC2)c1)c1c2c(nc3ccccc13)CCN(Cc1ccccc1)C2`, 32.5%; with `Cc1cc(S(=O)(=O)Nc2ccc(C(=O)N3CC(C)OC(C)C3)cc2)ccc1F` (stereo not shown), -20.2%. As to `COc1ccc(OC(C)C(=O)Nc2ccc([N+](=O)[O-])cc2)cc1` (stereo not shown), the “hERG current change (%, negative = inhibition) at 10uM” value amounted to 3.6%. Take `COc1ccccc1/C=C1\C(=O)Nc2ccccc21`: the “hERG current change (%, negative = inhibition) at 10uM” value came out at 2.99%.

As to `COc1ccc(C(=O)NC2CCN(C(=S)Nc3ccccc3)CC2)cc1`, the “hERG current change (%, negative = inhibition) at 10uM” value was 12.7%. With `CC(C)CN1CCN(Cc2c(F)cccc2Cl)CC1CCO` (stereo not shown) the figure was -10.4%; with `C/C(=C(/NC(=O)c1ccccc1)C(=O)O)c1ccco1`, 21.4%. Regarding `CC(=O)c1ccc(NC(=O)COC(=O)CCc2ccc(S(=O)(=O)N3CCOCC3)cc2)cc1`, the “hERG current change (%, negative = inhibition) at 10uM” value is -14.4%. As for `CCOC(=O)c1sc(S(C)(=O)=O)c2c1CC(C)(C)C/C2=N/O`, the “hERG current change (%, negative = inhibition) at 10uM” value is reported as -7.19%. The figure for `O=[N+]([O-])c1ccc(-c2ccc(/C=N/O)o2)cc1` is 8.69%; for `COc1ccc(NC(=O)c2ccc3c(c2)C(=O)N(CC2CCCO2)C3=O)c(OC)c1` (stereo not shown) it is 15.1%. With `COC(=O)c1c(C)[nH]c(C(=O)CSc2ccc(Cl)cc2)c1C` the figure was 19.9%; with `Cc1ccc(CSCC(=O)N2CCOCC2)cc1`, 8.89%. The figure for `[Br-].c1cc[n+](CCCC[n+]2ccccc2)cc1` is 6.63%; for `CN1CCN(c2ccc([N+](=O)[O-])c3cccnc23)CC1` it is -41.5%; for `CC(Cc1ccccc1)NC(=O)Cc1ccc([N+](=O)[O-])cc1` (stereo not shown) it is -17.8%. For `O=C(NC(=S)Nc1ccc(CN2CCCCC2)cc1)c1ccco1`, the “hERG current change (%, negative = inhibition) at 10uM” value is recorded as -45.6%.

For the compound `Cc1ccnc(NS(=O)(=O)c2ccc(NC(=O)c3cncc(Br)c3)cc2)n1`, the “hERG current change (%, negative = inhibition) at 10uM” value amounted to 3.35%.
